According to article PMC3927877 (Nature Communications, 2013):

Molecular target: the molecule itself
Assay: SEC-MALS

B1: STIM1 CC1_([TM-distal])-CC2-CC3 ([…]) (domain or fragment)
chain: not shown
- binding result: binds
